# Measurements reported in article PMC4336329 (PLoS ONE, 2015).
# The campaign covered roughly 310,000 compounds. About 14,000 (4.5%) showed an effect of 50% or more. The effect is printed as a negative number. The list shows a part of the results.
# Target: human ether-à-go-go-related gene (hERG) potassium channel (human, UniProt Q12809)
# Test: primary screen, population patch clamp on CHO cells stably expressing hERG
# 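Note: peak tail current of the secondary pulse compared with the same well before compound.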
# Sequence of human ether-à-go-go-related gene (hERG) potassium channel (Q12809 whole entry, looked up): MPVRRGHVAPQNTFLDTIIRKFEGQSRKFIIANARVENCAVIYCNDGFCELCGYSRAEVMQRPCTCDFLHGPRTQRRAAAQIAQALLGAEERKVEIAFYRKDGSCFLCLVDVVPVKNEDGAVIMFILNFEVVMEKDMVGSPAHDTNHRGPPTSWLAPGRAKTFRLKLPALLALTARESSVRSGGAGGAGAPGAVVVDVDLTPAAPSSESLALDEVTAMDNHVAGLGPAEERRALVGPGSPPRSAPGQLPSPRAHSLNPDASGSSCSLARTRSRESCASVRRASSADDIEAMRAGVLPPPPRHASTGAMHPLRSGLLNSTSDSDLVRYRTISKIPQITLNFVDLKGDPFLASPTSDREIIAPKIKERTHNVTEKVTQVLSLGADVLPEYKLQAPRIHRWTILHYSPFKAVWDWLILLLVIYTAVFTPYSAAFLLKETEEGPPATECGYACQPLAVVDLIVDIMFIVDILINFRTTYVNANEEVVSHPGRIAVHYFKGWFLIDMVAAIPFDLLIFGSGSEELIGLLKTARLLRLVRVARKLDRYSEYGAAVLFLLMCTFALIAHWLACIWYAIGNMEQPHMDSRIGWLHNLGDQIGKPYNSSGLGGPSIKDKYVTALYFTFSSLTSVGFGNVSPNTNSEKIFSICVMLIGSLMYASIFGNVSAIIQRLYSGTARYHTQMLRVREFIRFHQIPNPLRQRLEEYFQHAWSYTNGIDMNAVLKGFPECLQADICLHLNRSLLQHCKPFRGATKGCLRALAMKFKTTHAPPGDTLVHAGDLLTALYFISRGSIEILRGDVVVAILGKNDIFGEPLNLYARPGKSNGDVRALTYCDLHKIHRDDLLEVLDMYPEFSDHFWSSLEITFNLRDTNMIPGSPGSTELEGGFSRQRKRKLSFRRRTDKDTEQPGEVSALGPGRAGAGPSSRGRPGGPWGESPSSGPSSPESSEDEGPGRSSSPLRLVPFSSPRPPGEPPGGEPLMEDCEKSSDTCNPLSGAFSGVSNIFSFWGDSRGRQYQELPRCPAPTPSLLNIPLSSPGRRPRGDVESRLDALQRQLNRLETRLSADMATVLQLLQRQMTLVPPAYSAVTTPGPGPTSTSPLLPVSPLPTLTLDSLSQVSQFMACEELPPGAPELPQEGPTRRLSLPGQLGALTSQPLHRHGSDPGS
row,Structure (SMILES),"hERG current change (%, negative = inhibition) at 10uM [%]"
1,C/C(=N\NC(=O)C1(C)CC1(Br)Br)c1ccc(C)cc1C (centres unmarked),-5.2
2,COC(=O)C1C(c2ccc(OC)cc2)C(C(=O)OC)S(=O)(=O)C(CCN2CCCCC2)S1(=O)=O (centres unmarked),11.6
3,Cc1ccccc1CN1C(=O)[C@@H]2Cc3c([nH]c4ccccc34)C(C)(C)N2C1=O,19
4,COC(=O)Cc1cn(-c2ncc(C(F)(F)F)cc2Cl)c2ccccc12,4.06
5,Cc1ccc(CNC(=O)C(NS(=O)(=O)c2cccc3nsnc23)c2ccccc2)cc1 (centres unmarked),-16.1
6,COc1ccc(CN(C)CC(=O)N2CCc3ccccc3C2)cc1,-42.1
7,Cc1cccc(C(C)C)c1NC(=O)COC(=O)CN1C(=O)C2CC=CCC2C1=O (centres unmarked),13.5
8,C#CCSc1ncc(-c2ccccc2)cn1,4.29
9,O=C(CSc1nnc(-c2ccncc2)o1)Nc1ccc(F)c(F)c1,-8.77
10,Nc1cc(C(=O)OCC(=O)NC(c2ccccc2)c2ccccc2)ccc1Cl,14.6
11,CCOc1ccc(NC(=O)CC2C(=O)N(c3ccccc3)C(=O)N2CCOC)cc1 (centres unmarked),-4.26
12,O=c1c2c(c(-c3ccccc3)nn1Cc1ccccc1)CCCC2,-16.2
13,CCCCCCCCCCOC(=O)Cn1c(COc2ccccc2)[n+](C)c2ccccc21.[Cl-],-76.1
14,Cc1c(Cl)cccc1N1C(=O)CC(NNC(=O)c2cccnc2)C1=O (centres unmarked),11.1
15,Cc1ccc(S(=O)(=O)N2CCC(C(=O)N[C@@H](C)C(=O)NCCc3ccccc3)CC2)cc1,-9.7
16,CCCCn1c(=O)c(CCC(=O)O)nc2ccccc21,13.7
17,OCC1(CCc2ccccc2)CCN(C/C=C/c2ccccc2)CC1,-80.9
18,CSc1nc2nccc(-c3ccc(Cl)cc3)n2n1,6.26
19,O=C(Nc1ccccc1)N1CCN(c2ccc(C(F)(F)F)cn2)CC1,-23
20,O=C(Nc1ccc(NC(=O)C2CC2)nc1)c1cccc(F)c1,14.5
21,CCOC(=O)Nc1ccc2c(C)cc(=O)oc2c1,-8.06
22,CN(C)S(=O)(=O)c1cccc(NC(=S)NN=C(Cc2ccccc2)Cc2ccccc2)c1,-1.73

row,Structure (SMILES),"hERG current change (%, negative = inhibition) at 10uM [%]"
1,COc1cc(/C=N/n2c(-c3ccc4c(c3)NC(=O)CO4)csc2=Nc2cccc(C)c2)ccc1O,5.28
2,COc1ccc(/C=N/NC(=O)C(C)N(c2ccc(OC)cc2)S(C)(=O)=O)cc1 (centres unmarked),-8.54
3,O=c1[nH]c(-c2cccnc2)nc2ccccc12,11.8
4,Nc1oc2ccccc2c(=O)c1-c1ccc2c(c1)OCO2,17.3
5,C/C(=N\Nc1ccc([N+](=O)[O-])cc1)c1ccc(C#N)cc1,10.3
6,CCCn1c(SCC(=O)NC2CCCC2)nnc1-c1cccnc1,15.2
7,c1ccc(-n2c(SCC3CCCCO3)nnc2-c2cnccn2)cc1 (centres unmarked),-1.46
8,COc1ccc(NC(=O)NNC(=O)CCC(=O)Nc2ccccc2Cl)cc1,17.8
9,CC(=O)Nc1cccc(C(=O)Nc2nc(C)cs2)c1,-1.1
10,Cc1ccc(/C=C2/Sc3ccc(C(=O)NCCN4CCOCC4)cc3NC2=O)cc1,2.03
11,CCCn1nc(NC(=O)CC)c2cc3cccc(C)c3nc21,16.2
12,COc1ccc(NC(=O)CN2CCN(c3c(C)cc(C)cc3C)CC2)cc1,3.97
13,COc1cc(/C=N/N2C(=O)c3ccccc3NC2(C)c2cccc([N+](=O)[O-])c2)cc(Br)c1O (centres unmarked),-20.7
14,CCOC(=O)c1cc(C#N)c(SCC(=O)c2cc(C#N)c(SC)nc2C)[nH]c1=O,-7.31
15,Cc1cc(NC(=O)c2ccc3c(c2)OCCO3)no1,4.64
16,O=C(Nc1ccc(F)cc1)OCCN1CCN(Cc2ccccc2)CCC1=O,-28.9
17,CC(C)(C)SCCNC(=O)CN(c1ccccc1)S(=O)(=O)c1ccccc1,11.4
18,COc1ccc(/C=N/NC(=O)CNC(=O)/C=C/c2ccco2)cc1OC,-0.434
19,CC1CCCN(C(=O)C(Cc2ccccc2)n2cccc2)C1 (centres unmarked),-18.2
20,CCc1ccc(N(CC(=O)Nc2ccc(NC(C)=O)cc2)S(=O)(=O)c2ccccc2)cc1,10.5
21,COc1ccc(Cl)cc1NC(=O)CN1c2ccccc2CC1C (centres unmarked),43.4
22,CCOc1cc(C#N)c(NC(=O)c2ccnn2C)cc1OCC,2.9
